# Data as given in PubChem BioAssay AID463173 (ICCB-Longwood Screening Facility, Harvard Medical School, 2010).
# Screen size: about 52,000 compounds; about 1,700 (3.3%) were called active. No stated cut-off is given here; in the data, active means survival mostly below about 52% (no sharp cut-off); inactive means mostly above about 56%. The list shows a part of the results.
# Tested on: Wild type
# Assay: S. aureus survival, RN4220 and DeltatarO strains – OD600, teichoic acid synthesis inhibitors, primary screen (AID 463173)
# Settings: S. aureus RN4220 wild type/DeltatarO growth, OD600, 18 h, hits give low values, screened at 18.75 µg/mL (by protocol)
row,SMILES,survival
1,CC1=C(c2ccc(C)c(C)c2)S(=O)(=O)N=C1N1CCC(C(=O)NCc2ccc(Cl)cc2)CC1,inactive: 69%
2,CCOc1ccc(C=Nc2ccc3c(c2)ncn3C)cc1,inactive: 102%
3,CCOc1ccc(NC(=O)Cn2cc(C(=O)c3ccc(CC)cc3)c(=O)c3ccc(C)nc32)cc1,inactive: 153%
4,CCOC(=O)c1cccc(NC(=O)c2cnc(N3CCCCC3)c3ccccc23)c1,inactive: 78%
5,COc1ccc(-n2c(=O)c3c(c4cc(OC)ccc4n3C)n(C)c2=O)cc1,inactive: 89%
6,Cc1ccc(CNC(=O)CN2CCCN(Cc3ccc(F)cc3)S2(=O)=O)cc1,inactive: 60%
7,Cc1ccc(-n2c(=O)c3cccnc3n2CC(=O)NCc2ccc(F)cc2)cc1C,inactive: 54%
8,O=C(c1ccccc1)N1CC(=O)N2CCc3ccccc3C2C1 (configuration not stated),inactive: 94%
9,O=C(COc1ccccc1F)Nc1ccc(Cl)c(-c2nc3ccccc3[nH]2)c1,inactive: 38%
10,COc1ccc(NC(=O)CSc2nccn2Cc2ccco2)cc1OC,inactive: 73%
11,Cc1cc(C)c(/C=C/c2onc(C)c2S(=O)(=O)N2CCC(C(=O)Nc3ccc(Cl)c(C(F)(F)F)c3)CC2)c(C)c1,inactive: 73%
12,CCN(CC)S(=O)(=O)c1ccc2c(c1)N(CC(=O)Nc1c(C)cc(C)cc1C)C(=O)C1CCCN21 (configuration not stated),inactive: 57%
13,Cc1oc2c(c1C(=O)Nc1ccc(C(=O)O)cc1)CCCC2,inactive: 113%
14,Cc1ccc2nc(NC(=O)CSc3nccn3Cc3ccccc3)sc2c1,active: 10%
15,CCOCCc1nnc(NC(=O)C(=O)c2cc(C)n(-c3cccc(Cl)c3)c2C)s1,inactive: 84%
16,COc1cc(NC(=O)c2cc(-c3cccc(Cl)c3)on2)c(OC)cc1Cl,inactive: 85%
17,CCOC(=O)c1cnc2ccccc2c1Nc1ccc(N2CCOCC2)cc1,inactive: 68%
18,COc1ccccc1NC(=O)c1nc(SCc2ccc(F)cc2)ncc1Cl,inactive: 88%
19,CCc1ccc(N2CCn3c2nc2c3c(=O)n(CCc3ccccc3)c(=O)n2C)cc1,inactive: 91%

row,SMILES,survival
1,Cc1cccc(Cn2c(=O)n(-c3ccc(Cl)c(Cl)c3)c(=O)c3c(C)c(C)sc32)c1,inactive: 86%
2,Cc1ccc(N(CC(=O)N2CCN(c3cc(Cl)ccc3C)CC2)S(=O)(=O)c2c(C)noc2C)cc1,inactive: 84%
3,Clc1ccc(-c2nc3ccccn3c2Nc2ccc3c(c2)OCCO3)s1,inactive: 79%
4,COc1ccc(OC)c(NC(=O)c2sc3nc4c(cc3c2N)CCCCCC4)c1,inactive: 70%
5,COc1ccc(NC(=O)c2sc3nc(C)c(C(=O)Nc4ccc(C)cc4C)c(-c4cccs4)c3c2N)cc1,inactive: 85%
6,Cc1noc2ncnc(NCc3ccccc3Cl)c12,inactive: 124%
7,CCOc1ccc(NC(=O)C(=O)NCCc2csc(-c3ccc(C)cc3)n2)cc1,inactive: 71%
8,CCN(Cc1ccccc1)C(=O)Cn1c(=O)oc2cc(S(=O)(=O)N3CCCCCC3)ccc21,inactive: 129%
9,Cc1ccccc1CSc1cn(CC(=O)N2CCCC2)c2ccccc12,inactive: 85%
10,Cc1ccc(NC(=O)c2ccco2)nc1,inactive: 112%
11,Cc1ccc(C)c(N2CCN(C(c3ccc(F)cc3)c3nnc(-c4ccccc4)o3)CC2)c1 (configuration not stated),active: 14%
12,CCC(=O)N1CCc2cc(S(=O)(=O)NCCC(=O)Nc3ccc(OC)c(OC)c3)ccc21,inactive: 78%
13,COc1ccc(-c2nnn(CC(=O)N(c3ccccc3)C(C(=O)NC3CCCC3)c3ccco3)n2)cc1 (configuration not stated),inactive: 85%
14,COC(=O)/C=C\c1cc(Br)ccc1C#N,inactive: 98%
15,CCOC(=O)c1oc2ccccc2c1CN(C)CCc1ccccc1,inactive: 114%
16,Cc1cnc2c(c1SCC(=O)NCc1ccc(F)cc1)c(=O)n(C)c(=O)n2C,inactive: 63%
17,COc1cc(-c2nnn(CC(=O)NCc3ccccc3)n2)cc(OC)c1OC,inactive: 102%
18,Cc1cccc(N2CCN(c3ncnc4c3c(-c3ccccc3)cn4-c3ccccc3)CC2C)c1 (configuration not stated),inactive: 138%
19,CCOc1ccc(-c2cc(C(=O)N3CCN(c4ccc(C)cc4)C(C)C3)c3ccccc3n2)cc1 (configuration not stated),inactive: 110%

row,SMILES,survival
1,c1ccc2c(c1)ncn2-c1ncnc2sc3c(c12)CCCC3,inactive: 107%
2,CCCCn1nc(NC(=O)c2cccc(Cl)c2)c2cc3ccc(C)cc3nc21,inactive: 88%
3,CC(=O)Nc1ccc(NS(=O)(=O)c2cc3c4c(c2)CC(=O)N4CCC3)cc1,inactive: 128%
4,CC(C)(C)c1ccc(OCC(=O)NC(Cc2c[nH]c3ccccc23)C(=O)O)cc1 (configuration not stated),inactive: 80%
5,COc1cccc(CNC(=O)CCCn2c(=O)c3cccn3c3cccnc32)c1OC,inactive: 120%
6,COc1ccc(-c2cc3nc(C)c(CCC(=O)N4CCN(c5cc(C)ccc5C)CC4)c(C)n3n2)c(OC)c1,inactive: 72%
7,Cn1cc(S(=O)(=O)c2ccc(Cl)cc2)c(=O)c2cc(F)c(N3CCOCC3)cc21,inactive: 73%
8,COc1cc(C(=O)NCCS(=O)(=O)N2CCN(c3ccccc3)CC2)cc(OC)c1OC,inactive: 73%
9,O=C(NN=C1C2CC3CC(C2)CC1C3)c1ccncc1,inactive: 108%
10,CCOc1ccc(NC(=O)CN2CCN(CC(=O)Nc3ccc(OC)cc3)CC2)cc1,inactive: 74%
11,CN(C(=O)CSc1nc2ccc(NC(=O)COc3ccccc3Cl)cc2s1)c1ccccc1,inactive: 56%
12,Cc1ccc(Nc2c(-c3ccccc3O)nc3cc(C)ccn23)cc1,inactive: 73%
13,CCCCCCC1CC=C(C(=O)O)CC1 (configuration not stated),inactive: 110%
14,COc1ccc(N2CCN(S(=O)(=O)CCNC(=O)c3ccc(OC(C)C)cc3)CC2)cc1,inactive: 83%
15,COc1ccccc1/C=C/c1nc(C#N)c(N2CCN(c3ccccc3)CC2)o1,inactive: 116%
16,COc1ccc(-c2cc(C(F)(F)F)nc(NCCc3ccccc3)n2)cc1,active: -2%
17,Cc1c(-c2ccc(Cl)cc2)c(=O)oc2c(CN3CCOCC3)c(O)ccc12,inactive: 84%
18,O=C(NCCc1ccccc1)c1cc2sccc2n1Cc1ccc(F)cc1,inactive: 86%
19,COC(=O)c1c(SCC(=O)Nc2cc(F)ccc2F)[nH]c2ccc(C)cc2c1=O,inactive: 136%
